Data on 167 variants can be found in the RNAGym collection of RNA variant scans (doi:10.7554/elife.90254).

Read counts are not given, so values of variants with three or more changes are uncertain.

B1: LINE1-mini (parent)
chain: GGCAGAGCUCAACACAGCGUGGCAAAGUGGCUGUGGCUAGACUGCC

Variants of B1 are the subject of this data set. The data set is described as follows: self-cleavage, relative activity (ratio to wild type); higher = more cleavage; in vitro, sequencing; the parent is a self-cleaving ribozyme.
As for G7A G17C G33U, the self-cleavage was determined as 0.06. G7C C8G C23A A26G: the self-cleavage was 0.44. Take G7A C10A A24G U34A A39U C45G: the self-cleavage stood at 0.04.

As to G7C U9A U20A, the self-cleavage came to 0.11. Turning to G7A C10A G19A A26U A39U, the self-cleavage was 0.02. As to G7C C10G G17U C46G, the self-cleavage worked out at 0.02. Next, G7C G17C U20G: 0.02; G7U C8A G35C: 0.52; G7U A14U G27U G40A G44C: 0.23.

On to G7C C13G C42A U43G, for which the self-cleavage turned out to be 0.02. Turning to G7C U9C A25G C42A, the self-cleavage was determined as 0.01. On to G7A C23G U43C, for which the self-cleavage worked out at 0.02.

As for G7C U38A G40A G44A, the self-cleavage was 0.04. For the variant G7C C8A G40A, the self-cleavage stood at 0.23. Next, G7A G33A A41C: 0.06. On to G7C C8A G22A G27C A41C, for which the self-cleavage came to 0.14. As to G7C U34C G36U, the self-cleavage amounted to 0.14. Then G7C G21A A26C G29C G40U G44U, with 0.1. Next, G7C C8U A12G U34G: 0.01; G7U A25G G36C: 0.14. As to G7A C10A G17A A26G G33U U34A, the self-cleavage stood at 0.01. G7U A14C U20C A24C G27A: the self-cleavage turned out to be 0.04. Consider G7C G29U C45A, for which the self-cleavage came to 0.25. As to G7C A12U A24G, the self-cleavage came to 0.11. With G7C A12G A39U, the self-cleavage was 0.02.

Consider G7C C18G A25G U38A, for which the self-cleavage was 0.02.

For G7U A12U C13A G19A, the self-cleavage was determined as 0.12.

On to G7C G27U G33U, for which the self-cleavage stood at 0.11. Consider G7C U9A G27U U32G A41C, for which the self-cleavage was found to be 0.01. On to G7C G17U G33C, for which the self-cleavage was found to be 0.25.

G7A G22C C23A G29U: the self-cleavage was determined as 0.01. Consider G7C C15A G30C, for which the self-cleavage is 0.05.

For G7C C15A G30A, the self-cleavage came out at 0.12. Regarding G7C C18A G22C A26G G35A, the self-cleavage was 0.03. With G7C G36U C46A, the self-cleavage was 0.11. Consider G7U C8A C13A, for which the self-cleavage was 0.23.

For G7C U20C A41C, the self-cleavage is 0.18. Consider G7U C8A A14G, for which the self-cleavage amounted to 0.1.

On to G7C G19C G33A G44U, for which the self-cleavage was found to be 0.27. As to G7U A26C G30C A39U C42G, the self-cleavage came to 0. Turning to G7C C10A C18A G19A C46A, the self-cleavage came to 0.02. As to G7C C18G U43G, the self-cleavage was 0.05. Next, G7U A12C G19A: 0.01; G7C C10A A11C C31U: 0.01; G7C A24C G27U G30C: 0.36.

As to G7C U9G C13G G29C G33A U34A, the self-cleavage stood at 0.06. As for G7C G21U C42U C46A, the self-cleavage was determined as 0.11. Then G7C G17C A41U, with 0.11. Consider G7C U9C A16G C18U U43A, for which the self-cleavage stood at 0.01. In the case of G7C U9A C13A A25C, the self-cleavage was determined as 0.07. With G7C C31A U32G A41U, the self-cleavage stood at 0.08. Next, G7C A16C G19U G21U U38A: 0.04; G7A U9G U32C A41G: 0.02; G7C C23U A41C: 0.07. G7A U9G A24U G30U C46A: the self-cleavage came out at 0.12. Take G7C C10A U34C C37A: the self-cleavage is 0.04. Consider G7A C10U C15U C18G, for which the self-cleavage is 0.1.

In the case of G7A G17A G44U, the self-cleavage is 0.01. As for G7C C13G C23A G27A, the self-cleavage is 0.01. Take G7C C8A C13U U20A A26U C31G A41C: the self-cleavage worked out at 0.22. Next, G7C C18U C23G: 0.02; G7A G21A A39C: 0.45.

Regarding G7A C13U C23A G27C U43A C46U, the self-cleavage turned out to be 0.55. Turning to G7C C8A G40A C45U, the self-cleavage is 0.05.

Turning to G7C C8A A14C G22A, the self-cleavage is 0.1. With G7U C8G A12G, the self-cleavage is 0.03. For G7U A12U A16G A25G A26G, the self-cleavage came to 0.09. G7C A39C C45U: the self-cleavage was 0.04. Then G7U A14U U20C U32G, with 0.11; and G7C G22A G29A U34G C37U, with 0.01. On to G7C U9A A12C C18A C42G G44A, for which the self-cleavage amounted to 0.01. As for G7C U9C G30U U38A C45G, the self-cleavage amounted to 0.02.

For G7A G21U A25C, the self-cleavage was determined as 0.06. With G7C C13G G17U, the self-cleavage amounted to 0. As to G7U A14U U32A, the self-cleavage was 0.11. Then G7C C8U U38G, with 0.04; and G7A U9C A25G A26C C31U, with 0.04. Then G7A C37U G44U C46U, with 0.07. For the variant G7U A25C C46G, the self-cleavage amounted to 0.05. Regarding G7C A14U U32C G40A C42U, the self-cleavage came out at 0.01. Then G7U A11G G17U G29U G35U A41U C46A, with 0.01; and G7A G21A A25C G33A G35C G36C C37A, with 0.22; and G7U A11C U20C U28A G36A, with 0.02. Take G7C C10G A24U A25G A39U: the self-cleavage stood at 0. For G7C U34G C45A, the self-cleavage worked out at 0.08. As for G7U A26C U38G, the self-cleavage was 0.02. As to G7A C10G G27A, the self-cleavage came out at 0.02. G7A U20G C42G: the self-cleavage was 0.06. Then G7A G19C C37U C45G, with 0.01; and G7C G27A U43A, with 0.02. Next, G7C A11G C13A: 0.03; G7C G19C U20A C23U: 0.03. As to G7A G30A U34G U43A, the self-cleavage was 0.09. As to G7A U9C C13A G21A C42A, the self-cleavage stood at 0.02. Turning to G7A C15G G19U, the self-cleavage came out at 0.24. Then G7C C15A A39G, with 0.02. Regarding G7A G30U U38G G44A, the self-cleavage was found to be 0.1. Regarding G7U C8A G19C G36U U38G, the self-cleavage is 0.02. Next, G7C U9G C10A U38A C42G: 0.

For the variant G7C C10U G27U G33U A39U, the self-cleavage is 0.02. As for G7C C13A C18U, the self-cleavage was 0.16. With G7A G21A C23A C37U, the self-cleavage stood at 0.03.

Regarding G7A G19A C23G G29U, the self-cleavage turned out to be 0.02.

With G7A G35A G36U, the self-cleavage was determined as 0.24. As for G7A G29A C37U, the self-cleavage stood at 0.01. For G7A C15G A25U U32G, the self-cleavage is 0.23. As to G7C A11G C18U, the self-cleavage came out at 0.02.

As to G7C C10G G17U C18U G19A G33C A39G, the self-cleavage was determined as 0.03. Turning to G7C A12U G29C U34G, the self-cleavage turned out to be 0.02. Regarding G7A C10G A11C A24G G33U, the self-cleavage was found to be 0.01. Consider G7C A12U C31U C46A, for which the self-cleavage amounted to 0.09. Regarding G7A G33A G36A, the self-cleavage worked out at 0.09. Next, G7C C23G G29A: 0.07; G7C G33U C37A U43C: 0.15. As to G7A G27A U34A G40U, the self-cleavage turned out to be 0.02. As to G7C C10U C13A, the self-cleavage was determined as 0.03. Regarding G7A C13U G27A, the self-cleavage is 0.23. For G7A G21C C42A, the self-cleavage came out at 0.07. For the variant G7U C8A G29U, the self-cleavage was found to be 0.19.

For G7C C23A G30A, the self-cleavage was found to be 0.32. As to G7A C10A C15A G17A C18U C42A C45A, the self-cleavage came out at 0.03.

Take G7C G40C C46U: the self-cleavage was determined as 0.06. Turning to G7A G40A G44A, the self-cleavage came to 0.11.

Take G7C C15G A25U G27A G30U G36C: the self-cleavage was found to be 0.01. Regarding G7C A24C G29C G40U G44C C45G C46A, the self-cleavage is 0.01.

As for G7U A25G G36A U43G, the self-cleavage turned out to be 0.04.

As to G7C U28A G30C C37G, the self-cleavage was 0.01. With G7C A16C G17U, the self-cleavage worked out at 0.09. On to G7A C13G U34C, for which the self-cleavage stood at 0.23. For G7C C13G A26U, the self-cleavage came to 0.08. Regarding G7C C8A A25G G30U C37U C45U, the self-cleavage worked out at 0.08.

With G7C A14G G27C G29U G33A, the self-cleavage came out at 0.02. For the variant G7U A11G G21C G30U G35U G40U C45A, the self-cleavage amounted to 0.

As for G7U A11G G22C C23G G36A C46G, the self-cleavage amounted to 0.

Regarding G7U A16G G22A A26G C31G, the self-cleavage was determined as 0.04. Take G7A C31U U38G G44A: the self-cleavage is 0.02. As to G7C C18A G19C, the self-cleavage turned out to be 0.09. Take G7A G29U C46U: the self-cleavage came to 0.08.

As to G7C C15U U20G U28G C37G G44C C45A C46G, the self-cleavage was found to be 0.01. For the variant G7C A41C C45G, the self-cleavage is 0.05. As to G7U A14C G30A U38C, the self-cleavage was 0.09. With G7A C8U U9A A16U G19A, the self-cleavage came to 0.09.

Regarding G7A G36U G40C, the self-cleavage came out at 0.19. For G7C C10A A25C U34C G35U C37U C42A G44A, the self-cleavage was found to be 0. In the case of G7C C31G U34A, the self-cleavage worked out at 0.02. In the case of G7C C15G A41C U43G, the self-cleavage is 0.08. Then G7C C18A G22C A25G, with 0.05; and G7C C10U G29U G30U, with 0.06; and G7C G19A G35U, with 0.07. As to G7C A16U A25G G30U, the self-cleavage was 0.03. In the case of G7U C8A A11C G17A, the self-cleavage amounted to 0.02. For the variant G7A C31A U34G C37G C42U, the self-cleavage is 0. With G7A U32G U34G C42A, the self-cleavage is 0.01.

Turning to G7A G22A A25G G27A, the self-cleavage was found to be 0.15. On to G7A U20C U28G G29A, for which the self-cleavage is 0.02.

Take G7C C18A G21A U43A: the self-cleavage worked out at 0.05. Next, G7C G19U U20A G29U: 0.08; G7C C13U C18A: 0.01; G7C A16C A26C G33C A39U: 1.21.

For the variant G7A G17A U20C G21U G29A G30C, the self-cleavage was determined as 0.15. For the variant G7U C8A U43C, the self-cleavage is 0.39.

G7C A12G A25U G36C C37U: the self-cleavage amounted to 0.01.

Take G7C C15A G17U C18G G40C G44C: the self-cleavage was 0.1. Then G7A G29A C45A, with 0.01; and G7A C23U U34C, with 0.29; and G7A C13U U20A, with 0.77. Next, G7A U9C C10A G22U C31A: 0.01.
